Results: the supplement of paper PMC12217912
The other results are listed elsewhere or left out. Sequences were assembled here from the parent chain. Values near 0.05 are background.

B1: TEV protease; numbered along this chain (parent)
chain: MGESLFKGPRDYNPISSSICHLTNESDGHTTSLYGIGFGPFIITNKHLFRRNNGTLVVQSLHGVFKVKDTTTLQQHLVDGRDMIIIRMPKDFPPFPQKLKFREPQREERICLVTTNFQTKSMSSMVSDTSCTFPSGDGIFWKHWIQTKDGQCGSPLVSTRDGFIVGIHSASNFTNTNNYFTSVPKNFMELLTNQEAQQWVSGWRLNADSVLWGGHKVFMVKPEEPFQPVKEATQL

Variants of: B1
Experiment: raw area under fraction-flipped curve 0-4 h after induction (AUC4h, not background-subtracted), DNA-recorder readout of cleavage of the substrate (dimensionless); higher = more cleavage of the substrate by the protease variant
Conditions: temperature: 34 °C; time window: 0-4 h after rhamnose induction
Protocol: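 In vivo DNA recorder in E. coli TOP10(DE3) ΔrhaA at 34 °C. Each TEVp single-site mutant (parent TEVp 0) is paired with a single-site variant of the 7-mer TEVs (canonical ENLYFQ|S). The substrate sits between flexible linkers in a Bxb1-sfGFP-TEVs-SsrA fusion, so cleavage stabilises Bxb1 and speeds flipping of a recombination array, read by NGS. The value is the raw area under the fraction-flipped curve over 0-4 h after rhamnose induction (AUC4h), with ≥20 reads per time point. It is not background-subtracted; inactive controls average about 0.047.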
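Also: Bxb1 expression induced with 0.2% (w/v) L-rhamnose at OD600 near 0.5, cultures sampled hourly, flipped fraction per protease–substrate barcode pair counted by paired-end Illumina sequencing.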

| Variant | area with substrate ENLYFQA | area with substrate ENLYFQC | area with substrate ENLYFQD | area with substrate ENLYFQE | area with substrate ENLYFQF | area with substrate ENLYFQG | area with substrate ENLYFQI | area with substrate ENLYFQK | area with substrate ENLYFQL | area with substrate ENLYFQM | area with substrate ENLYFQN | area with substrate ENLYFQR | area with substrate ENLYFQS | area with substrate ENLYFQT | area with substrate ENLYFQV | area with substrate ENLYFQW | area with substrate ENLYFQY | area with substrate ENLYFQH | area with substrate ENLYFQQ | area with substrate ENLYFQP |
| --- | --- | --- | --- | --- | --- | --- | --- | --- | --- | --- | --- | --- | --- | --- | --- | --- | --- | --- | --- | --- |
| K230S | 0.095 | 0.0955 | 0.0697 | 0.0687 | 0.0773 | 0.0591 | 0.0589 | 0.0824 | 0.0525 | 0.093 | 0.0651 | 0.0746 | 0.104 | 0.0738 | 0.0348 | 0.073 | 0.0722 |  |  |  |
| C20L |  | 0.103 | 0.0746 | 0.0537 |  | 0.0674 |  |  | 0.0584 | 0.0808 | 0.0898 | 0.059 | 0.101 | 0.0642 | 0.0356 | 0.0691 | 0.084 |  |  |  |
| L22Y |  | 0.0382 |  | 0.0407 | 0.0542 |  | 0.0461 | 0.0498 |  |  | 0.0487 | 0.0481 | 0.0519 | 0.0398 |  |  | 0.0494 | 0.0504 | 0.0472 |  |
| F226E | 0.123 | 0.132 | 0.0726 |  |  |  | 0.0618 | 0.0877 | 0.0604 | 0.115 |  | 0.0652 | 0.109 | 0.0692 |  | 0.0705 | 0.0856 |  | 0.0656 | 0.0731 |
| F226Q | 0.115 | 0.125 |  | 0.0502 |  | 0.122 | 0.06 | 0.0676 | 0.0625 | 0.0798 | 0.0596 | 0.0642 | 0.11 | 0.0745 | 0.0795 |  | 0.093 | 0.0957 | 0.0772 | 0.0599 |
| N53D |  | 0.12 |  |  |  | 0.137 | 0.0517 | 0.0589 |  | 0.0751 | 0.0782 | 0.0671 | 0.114 | 0.0757 | 0.0668 |  | 0.0966 |  |  |  |
| L73Q |  | 0.0637 | 0.0579 |  |  | 0.0578 |  | 0.0531 | 0.0501 | 0.0586 |  | 0.0573 | 0.0647 | 0.0377 | 0.0641 | 0.0456 |  | 0.0537 |  | 0.046 |
| F41Q |  | 0.0826 | 0.0616 | 0.0519 |  | 0.0749 |  | 0.027 | 0.0961 | 0.076 |  | 0.0571 | 0.077 | 0.0476 | 0.0624 | 0.061 | 0.0549 | 0.0516 |  |  |
| S18Q |  | 0.115 | 0.0842 | 0.0801 |  | 0.117 |  | 0.0453 | 0.0719 | 0.0997 | 0.0835 | 0.0693 | 0.117 | 0.0724 |  |  |  |  |  |  |
| L235E | 0.118 |  | 0.0786 |  |  |  |  |  |  | 0.0828 | 0.0885 | 0.0552 | 0.119 | 0.0891 |  |  |  | 0.106 |  |  |
| L235Q | 0.134 | 0.106 |  |  | 0.0813 | 0.114 | 0.0539 |  | 0.0655 |  | 0.114 | 0.0615 | 0.11 | 0.0689 | 0.0667 | 0.0774 | 0.0669 | 0.0737 |  | 0.0516 |
| S60C |  | 0.105 |  |  | 0.068 | 0.0928 | 0.0602 | 0.0655 | 0.065 | 0.0896 | 0.0856 | 0.0578 | 0.105 | 0.0652 |  |  | 0.0807 | 0.0663 | 0.0062 | 0.0571 |
| T30R |  | 0.126 |  |  | 0.0794 | 0.114 | 0.0798 | 0.0637 |  | 0.0889 |  |  | 0.11 | 0.0605 | 0.056 | 0.0678 | 0.074 | 0.105 |  | 0.0664 |
| G28Q |  | 0.132 |  | 0.0511 |  | 0.177 | 0.061 | 0.106 | 0.0534 | 0.0735 | 0.0712 | 0.0636 | 0.0895 | 0.0618 | 0.0982 | 0.0635 | 0.0753 |  | 0.0591 | 0.0539 |
| N13M |  | 0.114 | 0.0812 |  |  |  | 0.0512 | 0.0679 | 0.0853 | 0.0972 | 0.0955 | 0.0541 | 0.107 | 0.0675 |  |  |  | 0.0701 | 0.0945 |  |
| T31V |  | 0.126 | 0.0429 |  | 0.141 |  | 0.0548 | 0.0641 | 0.0682 | 0.104 | 0.0781 |  | 0.117 | 0.0703 |  | 0.0584 | 0.0887 | 0.0762 |  | 0.0647 |
| R10W |  | 0.108 |  |  | 0.0678 | 0.11 | 0.0551 | 0.0673 | 0.0618 | 0.08 | 0.0842 | 0.0679 | 0.101 | 0.0604 | 0.0581 | 0.0749 | 0.0737 | 0.0762 | 0.0779 |  |
| F38K |  | 0.0628 | 0.0403 |  | 0.162 | 0.0672 |  | 0.0539 | 0.0386 | 0.0503 | 0.0594 | 0.041 | 0.0601 | 0.048 |  | 0.0593 | 0.0647 | 0.0567 | 0.0483 | 0.0502 |
| S4Y |  | 0.123 | 0.0729 |  | 0.11 |  | 0.0653 |  | 0.066 | 0.118 |  | 0.0612 | 0.145 | 0.0758 |  | 0.0715 |  | 0.094 |  |  |
| S4I |  | 0.138 |  |  | 0.0307 | 0.118 |  | 0.0675 | 0.0549 |  | 0.0589 | 0.0736 | 0.119 | 0.0724 |  | 0.079 | 0.103 | 0.105 | 0.0686 |  |
| H76L |  | 0.0964 |  |  | 0.098 | 0.0733 | 0.0618 | 0.071 | 0.0648 |  | 0.0741 |  | 0.118 | 0.0702 |  | 0.064 | 0.0759 |  |  |  |
| H76D |  | 0.0724 |  |  |  | 0.0674 | 0.0483 | 0.0565 |  | 0.0549 | 0.0625 | 0.0591 | 0.0669 |  |  | 0.0522 | 0.0592 | 0.063 | 0.0649 |  |
| E3F |  | 0.135 |  |  |  |  | 0.0608 | 0.0604 | 0.0609 |  |  | 0.0783 | 0.128 |  | 0.0616 |  | 0.0875 | 0.128 |  | 0.0222 |
| V57S |  | 0.109 |  |  | 0.0739 | 0.0888 |  |  | 0.0534 | 0.0901 | 0.0914 | 0.0519 | 0.104 | 0.0309 |  | 0.0536 | 0.0768 |  |  |  |
| D27S |  | 0.0949 | 0.0675 |  |  | 0.0835 | 0.0539 |  | 0.056 | 0.0708 |  | 0.0631 | 0.0924 | 0.0508 | 0.0652 | 0.067 |  | 0.0687 |  | 0.0562 |
| D27G |  | 0.129 | 0.0751 |  | 0.0931 | 0.0885 | 0.057 | 0.0718 | 0.0568 |  |  | 0.0439 | 0.098 | 0.0633 |  |  | 0.094 | 0.0872 |  |  |
| T23E |  | 0.0893 |  | 0.0537 |  | 0.0815 |  | 0.0777 | 0.0627 |  | 0.0785 | 0.055 | 0.0923 | 0.063 | 0.0516 |  | 0.0428 | 0.0786 |  | 0.0605 |
